# Laboratory results: PubChem BioAssay (NCATS)
# The shares of active, inactive and inconclusive entries below differ from those in the screen. Potencies beside an inconclusive call are fits to weak or partial responses and may not hold up. The source made the active and inactive calls. The call rests on the fitted dose curve; in most records, active means well fitted cell-killing curve with a large enough effect; inconclusive means small, poorly fitted or top-dose-only effect; inactive means no such curve, though single readings can be large or run the other way.
# Assay: qHTS of pediatric cancer cell lines to identify multiple opportunities for drug repurposing: Primary screen for MG 63 (6-TG R) cells (AID 1347105); further: nearly all actives have a fitted effect of over 50% in size
# Conditions: MG 63 (6-TG R) viability, CellTiter-Glo, 48 h; activity change, negative = cytotoxic: at 46 µM (top of the series) unless noted
# Source text: Drug repurposing or repositioning has been offered as a strategy for drug development in oncology programs. This approach has special potential for childhood cancers and other rare or orphan diseases, where the expected return on new drug development has been a disincentive to pharmaceuticals. […] In this project we exploit the poly-pharmacology of drugs to discover new indications via phenotypic screening of a panel of 19 well-characterized cell lines derived from solid tumors seen in children and adolescents. The goal is to identify approved drugs with previously unrecognized anticancer properties that has the potential to reveal new mechanisms and biological processes involved in carcinogenesis or drug resistance. We employed a titration-based paradigm (quantitative high-throughput screening or qHTS), where all compounds were tested at multiple concentrations for their effect on cell viability. Concentration-response curves (CRCs) were derived directly from the primary screen, and both potency and efficacy values were used to identify compounds with robust bioactivity profiles. We screened the NIH Chemical Genomics Center (NCGC) Pharmaceutical Collection (NPC) and Mechanism Interrogation Plate (MIPE) small molecule collections of approved and investigational compounds against these cell lines; and measured metabolically active cells after 48 hours of compound treatment as a proxy for cell viability. […] Assay Submitter: Nathalia J. Martinez, National Center for Advancing Translational Sciences, National Institutes of Health, Rockville, MD, USA; email: natalia.martinez@nih.gov Shen, M et al. Quantitative high-throughput phenotypic screening of pediatric cancer cell lines identifies multiple opportunities for drug repurposing. Oncotarget 2017 Dec 19;9(4):4758-4772. PMID 29435139.
# The cells were obtained from University of North Carolina (UNC), Pediatric Preclinical Testing Program (PPT), and Coriell Institute (CI). qHTS cell viability assay: Cells were assayed in growth media at a density of 500-1,000 cells/well. Five microliters of cells were dispensed into 1,536-well, white, solid-bottom, TC-treated plates (Greiner Bio One) using a multidrop dispenser and incubated at 37 degrees C, 5% CO2, under a humidified atmosphere for 5 hours. Twenty-three nanoliters of compounds and controls (neutral control DMSO or positive control bortezomib at final concentration of 2.3 µM) were subsequently transferred by Kalypsys pintool. For primary screens, the MIPE collection was tested at 11-point dilutions (final concentrations range from 0.78 nM to 46 µM) and the NPC collection at 8-point dilutions (final concentrations range from 0.59 nM to 46 µM). Compounds tested in follow-up screens were assayed at 11-point dilutions. Cells were incubated for 48 hours, followed by addition of 3 µL of CellTiter-Glo (Promega). After a 15 min incubation at room temperature, samples were analyzed for luminescence intensity using a ViewLux High-throughput CCD imager equipped with clear filters.
# On the % scale 0 is the no-effect control and ±100 the full control effect; potency means the concentration at half of the fitted maximal effect; tags describe the fitted curve by direction and shape.
SMILES,"activity change, negative = cytotoxic",Potency
O=C1OC(CCN2CCCCC2)OC1(c1ccccc1)c1ccccc1 (stereo not given),inconclusive: -44.9% [cytotoxic],
CCC(=O)O[C@H]1CC[C@H]2[C@@H]3CCC4=CC(=O)CC[C@]4(C)[C@H]3CC[C@]12C,inactive: -13.2%,
COC[C@@H](NC(C)=O)C(=O)NCc1ccccc1,inactive: -26.7%,
CN(C)[C@@H]1C(=O)C(C(N)=O)=C(O)[C@@]2(O)C(=O)C3=C(O)c4c(O)cccc4[C@@](C)(O)[C@H]3[C@H](O)[C@@H]12,inactive: -1.16%,
CC(C)N[C@@H]1CCn2c(=O)[nH]c3cccc(c32)[C@@H]1O,inactive: -25.4%,
COc1cccc(C(=O)CCN[C@@H](C)[C@H](O)c2ccccc2)c1,,"inconclusive: 33.5 µM [cytotoxic, single point]"
O=c1oc2ccccc2c(O)c1C(CC(O)c1ccc(-c2ccc(Br)cc2)cc1)c1ccccc1 (stereo not given),inactive: 0.0801%,
CO[C@H]1CCC(O[C@H]2C[C@H]([C@]3(C)CC[C@]4(C[C@H](O)[C@@H](C)[C@@H]([C@@H](C)C=C(C)C(=O)[C@H](C)C[C@H](C)C(=O)O)O4)O3)O[C@]3(O[C@@H]([C@H]4O[C@@](O)(CO)[C@H](C)C[C@H]4C)C[C@H]3C)[C@H]2C)O[C@H]1C (stereo not given in full),,active: 7.43 µM
CN1C[C@@H](NS(=O)(=O)N(C)C)C[C@@H]2c3cccc4c3c(cn4C)C[C@H]21,inactive: -27.8%,
Oc1ccc([C@H]2CNCc3c2ccc(O)c3O)cc1O,inconclusive: -33.8% [cytotoxic],
CC1N=C(N)OC1c1ccccc1 (stereo not given),,"inconclusive: 7.54 µM [cytotoxic, full curve, poor fit]"
CN1CCN(c2ccc([N+](=O)[O-])c3no[n+]([O-])c23)CC1,,"inconclusive: 37.2 µM [cytotoxic, single point]"
C[C@H]1CCCC=CC2C[C@H](O)C[C@@H]2[C@H](O)C=CC(=O)O1 (stereo not given in full),inconclusive: -70.9%,
C[C@H]1CNCCc2ccc(Cl)cc21,inactive: -16.6%,
CCCCCCCCC(=O)NCc1ccc(O)c(OC)c1,inconclusive: -56.5%,
O=c1oc2ccccc2c(O)c1Cc1c(O)c2ccccc2oc1=O,inactive: -39.7%,
CC=C(C)C(=O)N[C@@H](c1ccccc1)[C@@H](O)C(=O)O[C@H]1C[C@@]2(O)[C@@H](OC(=O)c3ccccc3)[C@@H]3[C@]4(OC(C)=O)CO[C@@H]4C[C@H](O)[C@@]3(C)C(=O)[C@H](OC(C)=O)C(=C1C)C2(C)C,inconclusive: -54.7%,
CC[C@@H](CO)NC(=O)[C@@H]1C=C2c3cccc4c3c(cn4C)C[C@H]2N(C)C1,inconclusive: -30.3% [cytotoxic],
CCOC(=O)C1(c2ccccc2)CCN(CCC(C#N)(c2ccccc2)c2ccccc2)CC1,,"inconclusive: 13.3 µM [cytotoxic, partial curve]"
COc1ccc(N(C(=O)Oc2c(C)cccc2C)c2ccnc(Nc3ccc(N4CCN(C)CC4)cc3)n2)c(OC)c1,,"inconclusive: 18.7 µM [cytotoxic, partial curve]"

SMILES,"activity change, negative = cytotoxic",Potency
CC=C(C)C(=O)O[C@H]1C(C)=C2[C@@H]3OC(=O)[C@@](C)(O)[C@@]3(O)[C@@H](OC(=O)CCC)C[C@](C)(OC(C)=O)[C@@H]2[C@@H]1OC(=O)CCCCCCC,,active: 0.118 µM
CC[C@@]1(O)C(=O)OCc2c1cc1n(c2=O)Cc2cc3ccccc3nc2-1,,active: 0.059 µM
CCC(=O)C(CC(C)N(C)C)(c1ccccc1)c1ccccc1 (stereo not given),,"inconclusive: 17.4 µM [cytotoxic, partial curve, poor fit]"
O=C(N[C@H]1CN2CCC1CC2)c1ccc(Cl)cc1,,"inconclusive: 37.2 µM [cytotoxic, single point]"
Cc1c(C(=O)c2cccc3ccccc23)c2cccc3c2n1[C@H](CN1CCOCC1)CO3,,active: 23.5 µM
c1ccc2c(c1)OCC(C1=NCCN1)O2 (stereo not given),,"inconclusive: 33.5 µM [cytotoxic, single point]"
O=C1C(I)=CC(=C(c2cc(I)c(O)c(I)c2)c2ccccc2C(=O)O)C=C1I,inactive: -19%,
CCCCCCC(=O)CCCCCC/C=C/C[C@@H](O)[C@H](O)[C@@](N)(CO)C(=O)O,,"inconclusive: 0.0018 µM [cytotoxic, full curve, poor fit]"
CCN1CCN(C(=O)Cc2ccc(Nc3ncc(F)c(Nc4ccc(C(=O)Nc5ccccc5Cl)cc4)n3)cc2)CC1,,active: 9.35 µM
CC(C)(O)C(=O)Nc1ccc([N+](=O)[O-])c(C(F)(F)F)c1,,"inconclusive: 37.2 µM [cytotoxic, single point]"
Nc1ccc(Cl)cc1C(=O)c1ccccc1F,,"inconclusive: 8.41 µM [cytotoxic, partial curve, poor fit]"
CC[C@]1(O)CC[C@H]2[C@@H]3CCC4=CCCC[C@@H]4[C@H]3CC[C@@]21C,,"inconclusive: 16.8 µM [cytotoxic, partial curve, poor fit]"
O=S(=O)(CC1CS1)c1ccc(Oc2ccccc2)cc1 (stereo not given),,"inconclusive: 37.2 µM [cytotoxic, single point]"
NCc1cccnc1,inactive: -5.29%,
c1ccc2c(c1)Sc1ccccc1N2CC1CN2CCC1CC2 (stereo not given),,active: 21.1 µM
Clc1ccc(CCC(Cn2ccnc2)Sc2c(Cl)cccc2Cl)cc1 (stereo not given),,"inconclusive: 23.5 µM [cytotoxic, partial curve, poor fit]"
c1ccc(CCCN2CCN(CCOC(c3ccccc3)c3ccccc3)CC2)cc1,,"inconclusive: 23.5 µM [cytotoxic, partial curve, poor fit]"
CC(=O)O[C@@]12CO[C@H]1C[C@H](O)[C@@]1(C)C(=O)[C@H](O)C3=C(C)[C@@H](O)C[C@@](O)([C@@H](OC(=O)c4ccccc4)[C@@H]21)C3(C)C,,"inconclusive: 14.8 µM [cytotoxic, partial curve]"
COc1cccc2c1C(=O)c1c(O)c3c(c(O)c1C2=O)C[C@@](O)(C(=O)CO)CC3OC1CC(N2CCOC(OC)C2)C(O)C(C)O1 (stereo not given in full),,active: 0.0211 µM
CC1(N2CCC(n3c([C@@H]4CCCNC4)nc4ccccc43)CC2)CCCCCCC1,inactive: -74.8%,
